{"source": "PubChem BioAssay (NCI)", "note": "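96-well plates; 48 h exposure; 5 concentrations. Endpoints by linear interpolation between flanking doses. Not reached: highest tested concentration assigned. GI50 is the concentration that inhibits growth by half. TGI marks complete inhibition of growth.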", "data": [{"system": "NCI-H322M lung", "assay": "inhibition of tumour cell growth, NCI panel, 48 h", "units": {"GI50": "µM", "TGI": "µM"}, "values": [{"smiles": "CC(=O)OC[C@H]1OC(O)C=C[C@@H]1OC(C)=O", "note": "(some centres not stated)", "GI50": 136, "TGI": 456}, {"smiles": "CS(=O)(=O)Nc1cc(-c2ccc3ncc(C#N)c(Nc4cccc(Cl)c4F)c3c2)cnc1Cl", "GI50": 0.65, "TGI": 3.19}, {"smiles": "Cc1ccc(C(=O)Nc2ccc(CNCCN3CCOCC3)c(C(F)(F)F)c2)cc1C#Cc1cnc2cccnn12", "GI50": 3.42, "TGI": 12}, {"smiles": "Fc1ccc(-c2nc(C(Cl)Cl)nc3cc(-c4ccccc4)nn23)cc1", "GI50": 3.26, "TGI": 36}, {"smiles": "C#CCN(C)CCCOc1ccc(NC(=O)CCCCCCC(=O)NO)cc1Cl", "GI50": 1.89, "TGI": 30.2}, {"smiles": "Cc1ccc2c(n1)C(=O)C(Cl)=C(Nc1cccc(C)c1C)C2=O", "GI50": 2.13, "TGI": 6.17}]}]}
